Data published in patent US20220307010A1 (TWIST BIOSCIENCE, published 2022).

Target: T1, TIGIT (T cell immunoreceptor with Ig and ITIM domains) (human, UniProt Q495A1 22-141, limits assumed)
T1 construct: also called hTIGIT; human TIGIT
T1 sequence (looked up): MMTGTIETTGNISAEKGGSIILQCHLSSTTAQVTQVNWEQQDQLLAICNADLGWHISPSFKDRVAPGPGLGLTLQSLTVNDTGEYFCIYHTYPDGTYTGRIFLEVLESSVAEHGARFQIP
Assay: SPR, VHH-Fc

B1: TIGIT-30-5 VHH-Fc (Fc fusion)
chain: EVQLVESGGGLVQAGGSLRLSCAASGGTFRNYGMGWFRQAPGKERELVAAISWSGVSTIYADSVKGRFTISADNAKNTVYLQMNSLKPEDTAVYYCASSPYGPLYRSTHYYDWGQGTQVTVSSGGGGS[skipping human IgG1 Fc with C220S (EU numbers)]
Q: What does the source list for B1?
A: koff: 1 s⁻¹; kon: 1e+09 M⁻¹ s⁻¹
